This passage reports binding results from paper PMC12192704.

Sequences of proteins named here, by UniProt entry; tags and fusion partners are left off. A change or cut given only in a name is not applied to a line headed by its entry.
UniProt Q9NUM4: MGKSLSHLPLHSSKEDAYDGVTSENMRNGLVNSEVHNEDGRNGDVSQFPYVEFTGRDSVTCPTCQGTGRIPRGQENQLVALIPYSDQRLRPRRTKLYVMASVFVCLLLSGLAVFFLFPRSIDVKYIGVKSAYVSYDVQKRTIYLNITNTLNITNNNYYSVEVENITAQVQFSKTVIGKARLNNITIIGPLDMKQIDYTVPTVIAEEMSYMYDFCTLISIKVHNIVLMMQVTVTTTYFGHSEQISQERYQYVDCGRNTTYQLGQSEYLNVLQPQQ

No constants are given. Whether binding was seen depends on the method and setting. In cells and extracts the contact can be indirect. Some results given as binding are weak or reduced against the parent protein; the word gives no strength. For some assays here: Where a sequence is shown, tags or fusion partners need not be part of it.

In assay [1] the target is GST-NHE1 fusion protein (human) (UniProt P19634). Put plainly: pull-down; purified GST-NHE1 as bait; GFP-TMEM106B, its fragments and mutants as prey, Western blot; only the target purified.
The target in the next assay is Flag-TMEM106B (human) (UniProt Q9NUM4). Briefly: co-IP; co-transfected cells (HEK293 named for Fig. 6B, C); anti-Flag or anti-GFP precipitation, control IgG or vector without bait; lysis buffer 20 mM Tris pH 7.5, 150 mM NaCl, 1 mM EDTA, 1% Triton X-100.
Another assay concerns the target GFP-NHE1 (human) (UniProt P19634). The description is as above.
The target in a further assay is GFP-TMEM106B (human) (UniProt Q9NUM4). Described as above.
For the next assay, the target named is Flag-NHE1 (human) (UniProt P19634). Described as above.
The target of assay [2] is GST-TMEM106B fusion protein (human) (UniProt Q9NUM4). Briefly: pull-down; purified GST-TMEM106B as bait; fragments and mutants of GFP-NHE1 as prey, Western blot; only the target purified. (Immunoblotting shows a protein as a band on a membrane.)

On to “GFP-TMEM106B aa118-274 (from UniProt Q9NUM4 118-274) (domain or fragment)”, for which the binding entry in assay [1] was “no binding”. Still for that read-out and setting: the entry for “GFP-TMEM106B aa81-117 (from UniProt Q9NUM4 81-117) (domain or fragment)” is “binds”; for “GFP-TMEM106B aa96-117 (from UniProt Q9NUM4 96-117) (domain or fragment)” it is “binds”. As to GFP-NHE1 (from UniProt P19634-1 1-815), the binding result with Flag-TMEM106B (human) is reported as “binds”.

For “GFP-TMEM106B aa1-117 (from UniProt Q9NUM4 1-117) (domain or fragment)”, in assay [1], the binding result was “binds”. Regarding “Flag-TMEM106B (from UniProt Q9NUM4 1-274)”, the binding entry with GFP-NHE1 (human) is “binds”.

Regarding Flag-NHE1 (from UniProt P19634-1 1-815), the binding result with GFP-TMEM106B (human) is reported as “binds”. Take “GFP-TMEM106B (from UniProt Q9NUM4 1-274)”: the binding result (in assay [1]; in the assay with Flag-NHE1 (human)) was “binds” in each case. On to PLVDLLAVKKKQETKRSINEEIHTQFLDHLLTGIEDICGHYGHHHWKDKL (domain or fragment, UniProt P19634-1 501-550) [GFP-NHE1 aa501-550], for which, in assay [2], the binding entry was “binds”.

For the molecule LTGIEDICGH (domain or fragment, UniProt P19634-1 531-540) [GFP-NHE1 aa531-540], the binding result in assay [2] was “binds”.
